Results as given in publication PMC4336329 (PLoS ONE, 2015).
Screen size: about 310,000 compounds; about 14,000 (4.5%) showed an effect of 50% or more. The effect is printed as a negative number. The list shows a part of the results.

Target: human ether-à-go-go-related gene (hERG) potassium channel (human, UniProt Q12809)
Test: primary screen, population patch clamp on CHO cells stably expressing hERG
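Also: peak tail current of the secondary pulse compared with the same well before compound.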

Chain of human ether-à-go-go-related gene (hERG) potassium channel (Q12809 whole entry, looked up): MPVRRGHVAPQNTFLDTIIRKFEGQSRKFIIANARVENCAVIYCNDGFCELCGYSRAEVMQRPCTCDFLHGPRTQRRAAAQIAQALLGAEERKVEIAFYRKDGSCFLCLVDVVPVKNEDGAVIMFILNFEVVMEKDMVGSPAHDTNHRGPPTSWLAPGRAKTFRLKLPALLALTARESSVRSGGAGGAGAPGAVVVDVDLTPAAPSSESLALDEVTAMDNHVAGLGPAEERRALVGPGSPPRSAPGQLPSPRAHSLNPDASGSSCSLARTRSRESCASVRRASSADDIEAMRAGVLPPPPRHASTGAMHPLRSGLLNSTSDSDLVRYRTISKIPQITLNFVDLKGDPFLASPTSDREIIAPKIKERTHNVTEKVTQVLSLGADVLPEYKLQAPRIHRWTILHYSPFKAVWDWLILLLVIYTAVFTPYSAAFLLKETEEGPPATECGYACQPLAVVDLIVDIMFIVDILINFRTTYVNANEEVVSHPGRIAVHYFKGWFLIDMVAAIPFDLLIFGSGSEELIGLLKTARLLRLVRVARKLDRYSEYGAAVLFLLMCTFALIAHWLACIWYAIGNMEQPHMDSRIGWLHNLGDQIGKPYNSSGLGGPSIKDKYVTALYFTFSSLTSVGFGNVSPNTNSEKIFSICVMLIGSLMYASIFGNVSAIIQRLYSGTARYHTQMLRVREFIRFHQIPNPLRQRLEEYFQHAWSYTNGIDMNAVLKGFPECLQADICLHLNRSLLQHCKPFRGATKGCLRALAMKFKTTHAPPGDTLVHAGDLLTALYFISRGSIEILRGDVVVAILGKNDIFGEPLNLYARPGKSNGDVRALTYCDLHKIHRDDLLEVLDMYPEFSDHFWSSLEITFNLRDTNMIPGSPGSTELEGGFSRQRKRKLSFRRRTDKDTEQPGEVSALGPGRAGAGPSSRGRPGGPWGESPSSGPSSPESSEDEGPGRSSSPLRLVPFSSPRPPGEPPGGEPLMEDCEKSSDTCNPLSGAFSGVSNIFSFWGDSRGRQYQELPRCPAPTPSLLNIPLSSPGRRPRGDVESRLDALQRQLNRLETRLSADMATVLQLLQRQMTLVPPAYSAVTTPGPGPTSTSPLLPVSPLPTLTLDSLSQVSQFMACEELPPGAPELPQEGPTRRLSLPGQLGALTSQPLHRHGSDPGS

SMILES	hERG current change (%, negative = inhibition) at 10uM [%]
CNC(=O)NC(=O)C(OC(=O)CCNS(=O)(=O)c1ccccc1)c1ccccc1 (centres unmarked)	9.53
O=C(CSc1nc(-c2ccc(F)cc2)nc2ccc(F)cc12)Nc1cccc(C(=O)O)c1	17
CC(C)C(=O)N1CCN(c2nc(-c3ccc(Cl)cc3)cs2)CC1	-82.5
N#Cc1c(-c2ccccc2)nc(SCC(=O)NC2CCCCC2)[nH]c1=O	31
O=C(Nc1cccc(Cl)c1N1CCOCC1)c1ccco1	-8.08
CC(C)Cc1nc2sc3c(=O)[nH]cnc3c2c2c1CCCC2	15.8
Cc1ccc(S(=O)(=O)N2CCOCC2)cc1C(=O)N1CCCC1	19.6
CC1(C)CC(=S)Nc2ccccc2S1	3.69
COc1ccc(N(C(=O)c2ccco2)C(C(=O)NC2CCCC2)c2ccncc2)cc1 (centres unmarked)	-18.4
CC(=O)N1CCOc2ccc(S(=O)(=O)NCc3ccc(F)cc3)cc21	-16.6
O=C(Nc1ccc(C(=O)N2CCOCC2)cc1)Nc1cccc(C(F)(F)F)c1	1.55
COC(=O)c1ccsc1NC(=O)CN1CCN(Cc2ccc3c(c2)OCO3)CC1	-78.4
O=C(O)CCC(=O)Nc1ccccc1Oc1ccccc1	11.6
CC1CCCN(c2nc3ccccc3nc2C(C#N)S(=O)(=O)c2ccccc2)C1 (centres unmarked)	7.12
O=C(C1CCCCC1)N1CCC(c2nc3ccccc3[nH]2)CC1	-5.51
C=CCN(C(=O)c1csnn1)C(C(=O)NCc1ccc(F)cc1)c1cccs1 (centres unmarked)	1.15
CCCOC(=O)c1ccc(N2C(=O)c3ccccc3C2=O)cc1	2.96
O=C(O)c1cc(S(=O)(=O)Nc2ccc3cn[nH]c3c2)ccc1Br	4.52
CCCOc1ccccc1NC(=O)c1ccc([N+](=O)[O-])cc1	2.83
COc1ccc(CNC(=O)CCCn2nc(C)c3c(C)n(-c4ccc(C)cc4)nc3c2=O)cc1	2.19
CCCSc1nnc(C(C)C)n1N	2.7
O=C(C1CCCO1)N1CCC(O)(c2ccccc2)CC1 (centres unmarked)	22.9
CC(C)(C)n1nnnc1C(c1cccs1)N1CCN(Cc2ccccc2)CC1.Cl (centres unmarked)	-9.24
COCCCNC(=S)NNC(=O)c1ccccc1Br	10.5
CC(=O)c1csc(Nc2ccccc2Cl)n1	1.25
CCC(C)C(=O)Nc1cc(Cl)ccc1C(=O)O (centres unmarked)	16.5
